Laboratory results published in PubChem BioAssay (NCI).
Where “and” joins values, the source holds several entries; their conditions need not be identical. Equal values may be shown once.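 How tested: cells in 96-well plates exposed to compound for 48 hours at five concentrations. GI50: concentration for 50% inhibition of growth. TGI is the concentration that stops growth completely.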

Test system: NCI-H322M lung
Experiment: NCI tumour cell line growth inhibition, 48 h

SMILES	TGI [µM]	GI50
CCOC(=O)C(CC(C)C)NC(=O)CSc1nnc(COc2ccc(Cl)cc2)n1-c1ccccc1 (centres undefined)	32.8	
CC(=O)OC1=CC2=CC[C@H]3[C@@H]4CCC(=O)[C@@]4(C)CC(=O)[C@]3(S)[C@@]2(C)CC1	> 100	
O=C(CCCCCC(=O)N1CC(CCl)c2ccc([N+](=O)[O-])cc21)N1CC(CCl)c2ccc([N+](=O)[O-])cc21 (centres undefined)	> 100	
COC(=O)/C=C\C(C#N)(C#N)N=Cc1ccccc1	31.4	
COc1cc(NS(C)(=O)=O)ccc1Nc1c2ccccc2nc2ccccc12		11.1 µM and 6.68 µM and 6.5 µM
Cc1ccc(-n2cc(-c3ccc(Cl)cc3)c3c(N/N=C4\SCC(=O)N4C)ncnc32)cc1	> 100	
COC(=O)C1=C(OC(=O)/C=C/c2ccccc2)C(C(=O)OC)[C@@]2(O)[C@@H](C(=O)OC)[C@H](C)C[C@@H]1[C@@H]2C(=O)OC (some centres undefined)	79.8	
O=C(CN1CCN(c2cc3c(cc2F)c(=O)c(C(=O)O)cn3C2CC2)CC1)Nc1nc(-c2ccc(Cl)cc2)cs1	> 100	4 µM
COc1ccc(S(=O)(=O)NC2=NCCN2C(=S)SN2CCn3c2nsc3=S)cc1	92.9	32.5 µM
Oc1ccc(-c2nc3ccc4[nH]ncc4c3c3c2CCCC3)c(F)c1	16.2	2.64 µM
CC(=O)NC1C(OCc2ccccc2)OC(CO)C(O)C1OC(C)C(=O)N[C@@H](C)C(=O)N[C@H](CCC(=O)OCCNc1c2ccccc2nc2cccc([N+](=O)[O-])c12)C(N)=O (some centres undefined)	0.0127	
CCOC(=O)c1c(-c2ccc(Cl)cc2)c(C#N)c(=S)n(C2OC(COC(C)=O)C(OC(C)=O)C(OC(C)=O)C2OC(C)=O)c1-c1ccccc1 (centres undefined)	> 100	
O=c1[nH]c(=O)n(C2CC(O)C(CO)O2)cc1NN=NCCCc1ccccc1 (centres undefined)	> 100	
O=C1C=C2SC3C[C@@]24CC1[N+]1=c2c4c(c(O)c4c2=C(C=N4)CC1)N3	8.17	
Cn1c(=O)c(NC(=O)C(Cl)(Cl)Cl)nc2ccccc21	> 100	
C=CCN1C(=O)/C(=C/c2ccco2)N=C1SC1OC(COC(C)=O)C(OC(C)=O)C(OC(C)=O)C1OC(C)=O (centres undefined)	> 100	
Cc1nc2c(o1)C(=Nc1ccccc1)c1ccccc1C2=O	28.6	
O=[N+]([O-])c1ccc(C2CC(c3ccccc3Cl)=Nc3ccccc3S2=O)cc1 (centres undefined)	49.4	
CC(=O)OC(Cc1ccc2ccccc2n1)(C(F)(F)F)C(F)(F)F	12	
COc1cc2c(cc1OC)C(Sc1ccc(SC)cc1)c1c(nc(N)c(C#N)c1N)O2 (centres undefined)	3.02	1.63 µM
